Measured values reported in PMC6919601, “Identification of Plasmodium dipeptidyl aminopeptidase allosteric inhibitors by high throughput screening” (PLoS ONE, 2019).
About 230 (0.21%) of roughly 110,000 compounds showed an effect of 50% or more. The list shows a part of the results.

Target: DPAP1 (Plasmodium falciparum, UniProt Q8IIJ9)
Assay: primary screen, percent inhibition; read by cleavage of a fluorogenic dipeptide substrate; higher = more effect of the substance
Parameters: species or system P. falciparum D10 trophozoite lysates; single well
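Further: 30 min substrate incubation versus DMSO and 10 µM JCP410 controls.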

Sequence of DPAP1 (Q8IIJ9 whole entry, looked up): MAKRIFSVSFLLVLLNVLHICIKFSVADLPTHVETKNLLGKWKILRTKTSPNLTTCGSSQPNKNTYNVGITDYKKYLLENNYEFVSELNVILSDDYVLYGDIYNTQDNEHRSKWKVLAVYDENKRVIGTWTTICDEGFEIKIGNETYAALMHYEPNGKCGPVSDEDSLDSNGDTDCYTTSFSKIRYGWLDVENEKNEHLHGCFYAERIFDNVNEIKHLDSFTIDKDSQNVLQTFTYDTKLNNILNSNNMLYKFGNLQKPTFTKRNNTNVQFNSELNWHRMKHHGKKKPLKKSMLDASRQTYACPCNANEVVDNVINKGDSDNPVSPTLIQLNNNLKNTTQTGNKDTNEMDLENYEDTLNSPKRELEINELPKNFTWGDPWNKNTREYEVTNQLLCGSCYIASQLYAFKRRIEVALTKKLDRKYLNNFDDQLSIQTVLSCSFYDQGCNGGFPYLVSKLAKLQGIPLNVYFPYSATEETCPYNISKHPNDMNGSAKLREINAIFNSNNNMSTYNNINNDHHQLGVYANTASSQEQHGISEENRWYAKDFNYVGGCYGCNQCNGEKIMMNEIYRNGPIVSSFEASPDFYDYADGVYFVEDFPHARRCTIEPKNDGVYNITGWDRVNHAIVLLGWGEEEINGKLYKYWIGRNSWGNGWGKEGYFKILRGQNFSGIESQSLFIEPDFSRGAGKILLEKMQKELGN

SMILES	% Inhibition @ 10 uM [%]
CC(=O)c1ccc(N/C=C\C(=O)c2ccc3c(c2)OCO3)cc1	0.777
CC1=C(c2cccc(Br)c2)S(=O)(=O)N=C1NC(C)C12CC3CC(CC(C3)C1)C2 (stereo not shown)	0.623
O=C(Cn1nc(C(F)(F)F)cc1C1CC1)Nc1ccc(F)c(F)c1	0.709
Cc1ccc(OC(C)C(=O)Nc2cccc(C)c2)cc1 (stereo not shown)	-0.95
COc1ccc(Cl)cc1N(CC(=O)Nc1ccccc1)S(C)(=O)=O	2.02
CCCNC(=O)c1nn2c(c1Br)NC(c1cccs1)CC2C(F)(F)F (stereo not shown)	-4.16
O=[N+]([O-])c1ccccc1CN1CCc2ccccc2C1	4.81
Cc1nc2cc(Cl)ccc2n1CCO	0.467
CCOC(=O)c1c(C)nc2ccccn12	-6.32
Cc1nc2ccc(S(=O)(=O)NCC(=O)N(C)C3CCCCC3)cc2s1	-0.72
C=CCC1NC(C)(C)Cc2cc(OC)c(OC)cc21 (stereo not shown)	0.177
CCCc1nnc(NC(=O)CSc2nc(O)c(C#N)c(-c3cccc(OC)c3)n2)s1	8.36
COc1ccc(OC)c(CCNC(=O)c2noc3c2COc2ccccc2-3)c1	59.5
Cc1ccc(-c2noc(CN(C(=O)CCCN3C(=O)c4ccccc4C3=O)C3CCCCC3)n2)cc1	-2.99
O=C(Cn1cc2c(n1)CCCC2)NCc1cccc(Cl)c1	0.137
O=C(CSc1nnc(-c2ccc(Cl)s2)o1)N1CCOCC1	-1.59
CCN(Cc1ccccc1)C(=O)c1oc2ccc(S(=O)(=O)N3CCCCCC3)cc2c1C	-2.26
CN(C)C(=O)N1CCCC(C(=O)NCc2ccc(F)cc2Cl)C1 (stereo not shown)	-1.34
Cc1ccc(C)c(NC(=O)CSc2ncn(-c3ccccc3)n2)c1	-5.45
O=C(O)c1ccc(CNc2nc3ccccc3nc2NS(=O)(=O)c2ccc(Cl)cc2)cc1	-3.95
Cc1nc(N2CCOCC2)nc(O)c1CCOc1ccccc1	9.03
COc1ccc(-c2nnc(NCc3nc4ccccc4[nH]3)c3ccccc23)cc1	2.18
COc1ccc(C2CC(c3c(O)cc(C)oc3=O)=NCCS2)cc1O (stereo not shown)	-1.8
CCOc1cc(Br)c(/C=C2\SC(=O)N(CC)C2=O)cc1OCC	-7.97
COc1cccc(/C=C2\SC(N3CCOCC3)=NC2=O)c1OC	4.85
Cc1ccccc1CSc1nnc2c(n1)[nH]c1ccc(S(=O)(=O)N3CCOCC3)cc12	-3.78
COc1cccc(C(=O)N2CCN(Cc3ccc(Cl)cc3)CC2)c1	-1.98
CSc1nc2c(cc1C#N)CCC2	0.317
